According to PubChem BioAssay AID1963576 (National Center for Advancing Translational Sciences (NCATS), 2024):
The whole screen tested about 46,000 compounds, of which about 60 (0.1%) were called active. Not shown: some 3% with an inconclusive outcome. Calls come from the whole dose curve; as a rule, active = well fitted inhibition curve with a large enough effect; inconclusive = small, poorly fitted or top-dose-only effect; inactive = no such curve, though single readings can be large or run the other way. The list shows a part of the results.

Assay: Primary qHTS assay for Inhibitors of ovarian cancer metastasis using an organotypic tumor microenvironment (TME) model.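 For activity change, negative = inhibition: plate controls were DMSO wells for no effect and tomatine positive control wells for full effect.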 Note: nearly all actives have a fitted effect of over 65% in size.
Details: SKOV3ip1-GFP adhesion/invasion on 3D omental model, fluorescence; series mostly up to 45.8 µM; activity change, negative = inhibition: at the top concentration
Summary of the method: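 A 3D layer of primary human omental fibroblasts, mesothelial cells, fibronectin and collagen I, grown 48 hr, received SKOV3ip1-GFP cells in serum-free medium plus compounds at 0.36-46 umol/L. After 2 hr RT and 16 hr 37 C, fixed adherent GFP cells were counted; normalized to DMSO and tomatine.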

Activity change, negative = inhibition, inactive:
Cc1cc(Nc2ccc(C(C)C)cc2)nc(-n2nc(C)cc2C)n1 -16.8%
COc1ccc(NC(=O)CN(C)S(=O)(=O)c2ccc3c(c2)CCCN3C(C)=O)cc1Cl 9%
O=C(NC1CC(=O)N(c2ccc(F)cc2)C1)C1CCCCC1 (stereo not given) 19%
COc1ccccc1C(=O)Nc1ccccc1SCc1cc(=O)c2ccccc2[nH]1 -20.5%
O=C(NCc1ccccc1)c1cc2ccccc2o1 7.15%
COc1ccc(OC)c2sc(N(Cc3cccnc3)C(=O)c3ccc(C(C)=O)cc3)nc12 -3.68%
CCOc1ccc(-c2csc(-c3nc(-c4ccc(Br)s4)cs3)n2)cc1 3.08%
Cc1nnc(SCC(=O)NCc2ccc(N(C)C)cc2)c2nn(-c3ccccc3)c(C)c12 0.269%
COc1cccc(CNC(=O)Cn2c(SCC(=O)Nc3ccc(F)cc3)nc3ccccc32)c1 -15.6%
Cc1ccc2c(c1)-c1c(c(C(=O)NCCc3ccccc3)nn1C)CS2 2.79%
Cc1ccc(C)c(N2CCN(S(=O)(=O)c3ccc4c(c3)CC(=O)N4C)CC2)c1 -9.71%
Cc1ccc(C(=O)COC(=O)c2cccc(NC(=O)c3ccc(Br)cc3)c2)cc1 2.16%
CC(C)CCNC(=O)c1cccc(-n2cnc3cccnc32)c1 6.17%
Cc1cccc(N(CC(=O)Nc2cccc(Cl)c2C)S(C)(=O)=O)c1C 6.41%
CCOCCCNC(=O)c1[nH]c2cc(OC)ccc2c1Sc1ccccc1 -0.325%
COc1ccc(CCC(=O)NCc2nc3cccnc3n2Cc2ccc(C)cc2)cc1 9.71%
CCCN1C(=O)CN(C2CCCCC2)C(=O)C1c1ccc(OC)c(OC)c1 (stereo not given) -2.3%
CCCCCNS(=O)(=O)c1ccc(N2CCCCS2(=O)=O)cc1 0.028%
COC(=O)c1c(NC(=O)c2nc(SCc3ccc(C)cc3)ncc2Cl)sc2c1CCCC2 -5.59%
Cc1cccc(-n2ncc(C(=O)N3CCN(C(=O)c4ccco4)CC3)c2C2CCN(C(=O)OC(C)(C)C)CC2)c1 4.96%
COc1cccc([C@@H]2Nc3ccc(C(=O)O)cc3[C@@H]3C=CC[C@@H]32)c1OC 5.27%
Cc1ccc2c(=O)cc(C(=O)Nc3ccc(S(=O)(=O)Nc4onc(C)c4C)cc3)oc2c1 -0.794%
O=C(NC1CC1)c1ccc(Cn2c(SCc3ccccc3F)nc3cccnc32)cc1 8.93%
Cc1ccc(N2CC(NC(=O)c3ccc(Br)o3)CC2=O)cc1C (stereo not given) -3.89%
Cc1nn(CCC(=O)NCc2ccc(N(C)C)cc2)c(=O)c2nn(-c3ccccc3)c(C)c12 0.969%
CC(NC(=O)C(=O)Nc1c2c(nn1-c1ccccc1)CSC2)c1ccccc1 (stereo not given) -1.06%
COc1ccc(N2CCN(CC(O)COc3ccc(C(C)C)c(C)c3)CC2)cc1 (stereo not given) -2.77%
CCc1nnc(NC(=O)CSc2nccn2Cc2ccc(F)cc2)s1 -13.5%
Cc1c(-c2ccc(O)cc2)n(Cc2ccc(OCCN3CCCCCC3)cc2)c2ccc(O)cc12 1.54%
Cc1nnc(N2CCN(c3ccccc3F)CC2)c2c1nnn2Cc1ccccc1Cl -15.1%
CC(C)(C)c1ccc(C(=O)Nc2ccc(-c3nc4cc(Cl)ccc4o3)cc2)cc1 -7.51%
CCN(c1ccccc1)S(=O)(=O)c1nnc(NC(=O)COc2ccccc2F)s1 1.52%
C=Cc1c(C)c2cc3nc(cc4[nH]c(cc5nc(cc1[nH]2)C(C)=C5CCC(=O)O)c(CCC(=O)OC)c4C)[C@@]1(C)C3=CC=C(C(=O)OC)[C@H]1C(=O)OC 24.6%
Cc1cc(C)n(-c2nc3cc(Cl)c(Cl)cc3nc2Nc2c(C)cccc2C)n1 -1.93%
CC(=O)Nc1ccc(S(=O)(=O)Nc2ccc3c(c2)n(C)c(=O)n3C)c(C)c1 5.76%
Cc1ccc(Nc2cc(-c3ccccc3)nc(C)n2)cc1 -4.74%
COc1ccc(-c2[nH]ncc2C(=O)NCc2ccccc2OC)cc1 21.6%
Cc1ccc(NC(=O)CN(C)S(=O)(=O)c2cccc3nsnc23)c(C)c1 0.19%
COc1ccc(CNC(=O)C(=O)NCC(c2cccnc2)N2CCN(c3ccccc3F)CC2)cc1 (stereo not given) -11.9%
COc1ccc(OC)c(NC(=O)CCc2c(C)nc3c(-c4ccccc4)c(C)nn3c2C)c1 16.3%
COc1nc(Oc2ccc(=O)n(-c3ccccc3)n2)nc(N(C)C)n1 -1.1%
CCOC(=O)c1c(NC(=O)c2cc3ccccc3c(=O)o2)sc2c1CCCC2 0.314%
Cc1ccc(NC(=O)[C@H](Cc2ccccc2)N2Cc3ccccc3C2=O)cc1 21.2%

outcome, inactive:
CCOc1cc(/C=C(\C#N)C(=O)Nc2ccccc2C)ccc1OCc1cc(=O)n2nc(CC)sc2n1
O=C(c1ccc2c(c1)N(Cc1ccccc1F)C(=O)c1ccccc1S2=O)N1CCCCC1 (stereo not given)
CCN(CC)C(=O)Cn1c(=O)n(CCCCCC(=O)NCc2ccccc2)c(=O)c2sccc21
COc1ccc(-c2nc(C)c(CCNC(=O)c3cc(OC)c(OC)c(OC)c3)s2)cc1OC
COc1cccc(C(c2c(O)cc(C)n(Cc3ccco3)c2=O)N2CCC(C)CC2)c1 (stereo not given)
Cc1ccc(NC(=O)C2CCN(c3nnc(-n4cccc4)s3)CC2)cc1Cl
CCCN(C(=O)Cc1c(C(=O)O)[nH]c2ccc(Cl)cc12)c1ccc(OCC)cc1
Cc1cccc(CS(=O)(=O)Cc2ccc(C(=O)NC(C)c3ccccc3)o2)c1 (stereo not given)
COc1ccc(NC(=O)Cn2c(=O)n(CCC(=O)NCCc3ccc(OC)c(OC)c3)c(=O)c3ccccc32)cc1Cl
Cc1ccc2c(c1)c(=O)c(C(=O)c1ccncc1)cn2CC(=O)Nc1ccc(C(C)C)cc1
COc1ccc2nc3oc(C(=O)N(C)c4ccc(Cl)cc4)cc3cc2c1
CCOc1ccc(CC(=O)NC2CC(=O)N(c3ccc4c(c3)OCCO4)C2)cc1 (stereo not given)
CC(=O)Nc1ccccc1-c1nc2ccccc2n(C(C)C(=O)c2ccc(C)c(C)c2)c1=O (stereo not given)
COc1cc(C2C(=O)N(C3CCC(C)CC3)CC(=O)N2CCc2ccc(Cl)cc2)ccc1OC(C)C (stereo not given)
CCc1cccc(NC(=O)c2ccc3c(=O)n4nc(Nc5ccccc5OC)sc4nc3c2)c1
CCCN(CCC)CCNC(=O)c1cc(Sc2ccc(Cl)cc2)nc2ccccc12

Potency, inactive:
CC(C=CC1=C(C)CCCC1(C)C)=CC=CC(C)=CC(=O)O
